The record followed here is the supplement of paper PMC12067230.

The data scatter; read single values as rough.
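Note: [psi-pin-] Saccharomyces cerevisiae expressing SupN fusions, induced by 100 µM Cu2SO4, selected 7 d at 30 °C without adenine and uracil, scored by deep sequencing of output versus input.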

A short description of the first data set: amyloid nucleation score relative to library mode (yeast Sup35 reporter selection) (log enrichment difference); higher = more amyloid nucleation; sequences are the first 22 residues of the Bri2 peptide extended by up to 12 random residues. Particulars: random library (experiment): 1;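 active = nucleation score significantly above 0 at FDR 0.05; inactive = not significantly above 0 or absent from output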.
In turn, EASNCFAIRHFENKFAVETLICYIRLDK had an amyloid nucleation score of 1.89.
Still for that read-out and setting: in the case of EASNCFAIRHFENKFAVETLICYIVYGMERLLVW it was “inactive”; in that of EASNCFAIRHFENKFAVETLICYKDKELPRTLEY, “inactive”; in that of EASNCFAIRHFENKFAVETLICYKLDRCTLCWAM, 2.09.
Regarding EASNCFAIRHFENKFAVETLICYKRRGPRGQLRR, the amyloid nucleation score entry was “inactive”.
Regarding EASNCFAIRHFENKFAVETLICYKSSYCQQHVRH, the amyloid nucleation score amounted to 4.28.
On the same count and under the same terms, in the case of EASNCFAIRHFENKFAVETLICYKV it was “inactive”; in that of EASNCFAIRHFENKFAVETLICYKVFSRTHKMSS, “inactive”; in that of EASNCFAIRHFENKFAVETLICYKVNFVPREILC, 0.627.
EASNCFAIRHFENKFAVETLICYL had an amyloid nucleation score of 8.77.
EASNCFAIRHFENKFAVETLICYLCFCYDVFKRR: the amyloid nucleation score was determined as 4.65.
On the same count and under the same terms, as for EASNCFAIRHFENKFAVETLICYLEFITT, the figure is 3.34.
Same read-out and setting: in the case of EASNCFAIRHFENKFAVETLICYLESSQ it was 4.75.
The same measure, in the same setting: in the case of EASNCFAIRHFENKFAVETLICYLFGRVVYRA it was “inactive”; in that of EASNCFAIRHFENKFAVETLICYLFLT, “inactive”.
EASNCFAIRHFENKFAVETLICYLGCTELGAGRW had an amyloid nucleation score of 5.48.
On the same count and under the same terms, as for EASNCFAIRHFENKFAVETLICYLGIWLPVCLVW, the entry is “inactive”.
As for EASNCFAIRHFENKFAVETLICYLGWTRSIELSS, the amyloid nucleation score entry is “inactive”.
For EASNCFAIRHFENKFAVETLICYLHGPTWFLYGG, the amyloid nucleation score turned out to be 0.6.
Take EASNCFAIRHFENKFAVETLICYLIPSMC: the amyloid nucleation score result was “inactive”.
On the same count and under the same terms, in the case of EASNCFAIRHFENKFAVETLICYLLVAETPMFRR it was 0.42; in that of EASNCFAIRHFENKFAVETLICYLPFAIYHDGAT, 6.43.
Same read-out and setting: as for EASNCFAIRHFENKFAVETLICYLPVVNGEFALV, the entry is “inactive”; as for EASNCFAIRHFENKFAVETLICYLQQSDY, 7.07; as for EASNCFAIRHFENKFAVETLICYLQSYNGLVLLS, “inactive”.
On the same count and under the same terms, in the case of EASNCFAIRHFENKFAVETLICYLRFLWHASLRC it was “inactive”; in that of EASNCFAIRHFENKFAVETLICYLS, 6.79; in that of EASNCFAIRHFENKFAVETLICYLSHDGRWGERR, 4.82.
Turning to EASNCFAIRHFENKFAVETLICYLSRCVTVCTPL, the amyloid nucleation score entry is “inactive”.
As for EASNCFAIRHFENKFAVETLICYLSRNNSNLWCA, the amyloid nucleation score result is “inactive”.
In the case of EASNCFAIRHFENKFAVETLICYLSSE, the amyloid nucleation score turned out to be 7.19.
EASNCFAIRHFENKFAVETLICYLSYWNRCLWKK: the amyloid nucleation score entry was “inactive”.

The data set is the same for the next values; noted with them: random library (experiment): 2.
In the case of EASNCFAIRHFENKFAVETLICYIPRSTIYSCCW, the amyloid nucleation score result was “inactive”.
Sequence EASNCFAIRHFENKFAVETLICYIQS registered an amyloid nucleation score of 7.
Sequence EASNCFAIRHFENKFAVETLICYIRPSGNKCSF gave an amyloid nucleation score of 2.71.
Same read-out and setting: in the case of EASNCFAIRHFENKFAVETLICYIRYLSSFVEYF it was “inactive”; in that of EASNCFAIRHFENKFAVETLICYISCVC, 2.56; in that of EASNCFAIRHFENKFAVETLICYISIVSFLKHSW, -0.0953.
Same read-out and setting: in the case of EASNCFAIRHFENKFAVETLICYISLDHLAPISF it was “inactive”; in that of EASNCFAIRHFENKFAVETLICYIVWPRLPDGST, 5.94; in that of EASNCFAIRHFENKFAVETLICYIWWNMMGSSK, “inactive”.
EASNCFAIRHFENKFAVETLICYIY gave an amyloid nucleation score of 6.47.
For EASNCFAIRHFENKFAVETLICYIYDQSKNFGLD, the amyloid nucleation score came out at 8.96.
With EASNCFAIRHFENKFAVETLICYIYGEIVGISW, the amyloid nucleation score result was “inactive”.
For EASNCFAIRHFENKFAVETLICYKACASFSGWIV, the amyloid nucleation score came out at 1.04.
Consider EASNCFAIRHFENKFAVETLICYKCMYSVNDRRL, for which the amyloid nucleation score was 3.33.
Same read-out and setting: in the case of EASNCFAIRHFENKFAVETLICYKKALFGCGKIF it was “inactive”; in that of EASNCFAIRHFENKFAVETLICYKLNGEV, “inactive”.
Same read-out and setting: in the case of EASNCFAIRHFENKFAVETLICYKMYYLL it was “inactive”.
Regarding EASNCFAIRHFENKFAVETLICYKNL, the amyloid nucleation score entry is “inactive”.
Still for that read-out and setting: as for EASNCFAIRHFENKFAVETLICYKRNVNLVRCLV, the entry is “inactive”; as for EASNCFAIRHFENKFAVETLICYKSMGFLNNRTL, “inactive”.
The same measure, in the same setting: in the case of EASNCFAIRHFENKFAVETLICYKVCGVKQLML it was “inactive”; in that of EASNCFAIRHFENKFAVETLICYKVFSDSLANCW, “inactive”.
Same read-out and setting: as for EASNCFAIRHFENKFAVETLICYKVSGIRMWCYG, the entry is “inactive”; as for EASNCFAIRHFENKFAVETLICYKVVNIEYSGRV, 8.78; as for EASNCFAIRHFENKFAVETLICYKWALLDAFCGI, “inactive”.
On to EASNCFAIRHFENKFAVETLICYLCLSWFISFDQ, for which the amyloid nucleation score entry is “inactive”.
As for EASNCFAIRHFENKFAVETLICYLDGRSVRFMFS, the amyloid nucleation score result is “inactive”.
EASNCFAIRHFENKFAVETLICYLDNNIYYAPAR: the amyloid nucleation score was 8.
On to EASNCFAIRHFENKFAVETLICYLDVGGWRVISW, for which the amyloid nucleation score result was “inactive”.
Same read-out and setting: as for EASNCFAIRHFENKFAVETLICYLDYLWYVKVLT, the figure is -0.0488.
Still for that read-out and setting: in the case of EASNCFAIRHFENKFAVETLICYLFTATIFLVSV it was “inactive”; in that of EASNCFAIRHFENKFAVETLICYLGALVVCPYYA, 5.59.
Take EASNCFAIRHFENKFAVETLICYLGCNTHFCRWI: the amyloid nucleation score entry was “inactive”.
As to EASNCFAIRHFENKFAVETLICYLHFCVMKGYGV, the amyloid nucleation score result was “inactive”.
On the same count and under the same terms, in the case of EASNCFAIRHFENKFAVETLICYLHMVFLPGRCR it was “inactive”.
EASNCFAIRHFENKFAVETLICYLIRNHVKGMWL gave an amyloid nucleation score of 0.635.
Still for that read-out and setting: in the case of EASNCFAIRHFENKFAVETLICYLKNDPMSMLRH it was “inactive”; in that of EASNCFAIRHFENKFAVETLICYLKTWSLYVVGY, “inactive”.
For EASNCFAIRHFENKFAVETLICYLKVSYRGMVNL, the amyloid nucleation score result is “inactive”.
Still for that read-out and setting: as for EASNCFAIRHFENKFAVETLICYLL, the figure is 7.56; as for EASNCFAIRHFENKFAVETLICYLLDSNTDGMWC, “inactive”; as for EASNCFAIRHFENKFAVETLICYLLHIGPLSVLQ, “inactive”.
Still for that read-out and setting: in the case of EASNCFAIRHFENKFAVETLICYLLISLRCTPLD it was “inactive”; in that of EASNCFAIRHFENKFAVETLICYLLNR, 6.41; in that of EASNCFAIRHFENKFAVETLICYLNVC, 6.97.
Same read-out and setting: in the case of EASNCFAIRHFENKFAVETLICYLPYCCVESLIP it was 4.43.
For EASNCFAIRHFENKFAVETLICYLRKPVHVGDFW, the amyloid nucleation score is 1.34.
Consider EASNCFAIRHFENKFAVETLICYLRSDITGSLVS, for which the amyloid nucleation score entry was “inactive”.
On the same count and under the same terms, in the case of EASNCFAIRHFENKFAVETLICYLSCFVIFSFAY it was “inactive”; in that of EASNCFAIRHFENKFAVETLICYLSCSWGFVPRK, “inactive”; in that of EASNCFAIRHFENKFAVETLICYLSSSY, “inactive”.
The same measure, in the same setting: as for EASNCFAIRHFENKFAVETLICYLSYLSQSGFSC, the entry is “inactive”.

The data set is the same for the next values; noted with them: random library (experiment): 3.
Take EASNCFAIRHFENKFAVETLICYIPYRVAGLHRL: the amyloid nucleation score result was “inactive”.
Turning to EASNCFAIRHFENKFAVETLICYITLCVLLNCML, the amyloid nucleation score result is “inactive”.
As to EASNCFAIRHFENKFAVETLICYIVR, the amyloid nucleation score was 0.0274.
Same read-out and setting: in the case of EASNCFAIRHFENKFAVETLICYKCANVCMVTSG it was “inactive”; in that of EASNCFAIRHFENKFAVETLICYKIARMCVRRTG, “inactive”; in that of EASNCFAIRHFENKFAVETLICYKL, 3.77.
Still for that read-out and setting: in the case of EASNCFAIRHFENKFAVETLICYKSIRDVMYHFV it was “inactive”; in that of EASNCFAIRHFENKFAVETLICYLCVTMLDGIPA, 1.48; in that of EASNCFAIRHFENKFAVETLICYLDCRKVMYSHG, 6.1.
On to EASNCFAIRHFENKFAVETLICYLGNQTFKCCLG, for which the amyloid nucleation score was found to be 5.82.
The same measure, in the same setting: in the case of EASNCFAIRHFENKFAVETLICYLGPVMQLRRLD it was 7.04.
Same read-out and setting: in the case of EASNCFAIRHFENKFAVETLICYLGSMNCLVQGR it was 5.41.
Same read-out and setting: as for EASNCFAIRHFENKFAVETLICYLHVSGYLSITM, the figure is 0.00905; as for EASNCFAIRHFENKFAVETLICYLIESHYHNFLT, “inactive”; as for EASNCFAIRHFENKFAVETLICYLIVPKMPWGYG, “inactive”.
For the sequence EASNCFAIRHFENKFAVETLICYLLFIDDGKR, the amyloid nucleation score amounted to 2.85.
Still for that read-out and setting: as for EASNCFAIRHFENKFAVETLICYLQ, the figure is 7.73; as for EASNCFAIRHFENKFAVETLICYLRFSRL, “inactive”; as for EASNCFAIRHFENKFAVETLICYLRSSEPCRAKE, “inactive”.
On the same count and under the same terms, in the case of EASNCFAIRHFENKFAVETLICYLSNVDCMFDTI it was “inactive”.
